# Laboratory results from PubChem BioAssay (NCATS).
# Where “and” joins values, the source holds several entries; their conditions need not be identical. Identical values can stand only once. Inconclusive means that the source gave no clear call. Such entries were picked first, then a sample of the others. For part of these data: Potencies beside an inconclusive call are fits to weak or partial responses and may not hold up. More than one record can exist for a structure, and the calls need not agree. Calls of active or inactive are those of the source. Unless noted, the call rests on the fitted dose curve; in most records, active means well fitted curve in the direction sought with a large enough effect; inconclusive means small, poorly fitted or top-dose-only effect, or another doubt; inactive means no such curve, though single readings can be large; an effect the other way counts as inactive or inconclusive.
# Legend:
# [1] = Primary qHTS for inhibitors of nuclear receptor binding SET domain protein 2 (NSD2) in an isogenic RCH-ACV NSD2 p.E1099K mutant (9B) (AID 1645876); further: nearly all actives have a fitted effect of over 70% in size
# [2] = target: Phospholipid hydroperoxide glutathione peroxidase GPX4 (Homo sapiens) (UniProt P36969); experiment: Primary qHTS Assay for Inhibitors of Recombinant Selenoprotein Glutathione Peroxidase 4 (GPX4) (AID 1845192); further: nearly all actives have a fitted effect of over 65% in size
# Sequence of UniProt P36969 (P36969 whole entry, looked up): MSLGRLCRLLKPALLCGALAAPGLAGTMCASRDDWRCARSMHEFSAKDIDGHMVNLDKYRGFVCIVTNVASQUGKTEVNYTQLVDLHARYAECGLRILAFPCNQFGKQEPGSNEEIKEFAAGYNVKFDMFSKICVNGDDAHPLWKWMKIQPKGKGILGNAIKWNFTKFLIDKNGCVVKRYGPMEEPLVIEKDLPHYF
# Method in brief: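 qHTS, GR-coupled: GPX4 200 nM + cpd 30 min RT → GSH 1 mM, NADPH 0.5 mM, GR 100 nM → CHP 0.5 mM start; fluor 340/450 at t0 and t15 min; no-enzyme wells as control.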
# [3] = tested on: CP247; experiment: qHTS profiling for inhibitors of Plasmodium falciparum proliferation (AID 504749); further: nearly all actives have a fitted effect of over 60% in size; conditions: P. falciparum in erythrocytes, SYBR Green DNA, 72 h; series mostly up to 28.7 µM
# Method in brief: (§1)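 Fluorescence of SYBR Green-bound parasite DNA, read at 485/535 nm, served as the growth measure. Infected erythrocytes were cultured with compound 72 h; artemisinin (0.29 uM) and DMSO wells defined the normalization range.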
# [4] = tested on: DIV14; experiment: as above; conditions: P. falciparum in erythrocytes, SYBR Green DNA, 72 h; series mostly up to 28.7 µM
# Method in brief: as §1
# [5] = tested on: NIH3T3; experiment: Cytotoxic Profiling of Annotated Libraries Using Quantitative High-Throughput Screening (AID 1296008); conditions: Five cell lines viability, CellTiter-Glo ATP luminescence, 48-72 h; max response: hits give low values; further: nearly all actives have a fitted effect of over 60% in size
# Method in brief: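 Compounds were pin-transferred onto cells and incubated 48 or 72 hr at 37 degree Celsius, 95% humidity. CellTiter-Glo was added, plates sat 10 min at room temperature, then ATP-coupled luminescence was imaged as the viability read-out.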
# [6] = tested on: Hek293T; experiment: Primary qHTS to identify gynecologic anti-cancer compounds using libraries of approved drugs and bioactive compounds (AID 1345084); conditions: Gynecologic cancer cell panel viability, ATPlite luminescence, 48 h, control line for the selectivity index; activity change, negative = cytotoxicity: at 57.5 µM (top of the series) unless noted; further: nearly all actives have a fitted effect of over 55% in size; on activity change, negative = cytotoxicity: on the % scale 0 is the no-effect control and ±100 the full control effect
# Method in brief: (§2)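 48 h compound exposure at 37 C, 5% CO2; five-point qHTS. ATPlite luminescence readout of cell ATP.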
# [7] = tested on: PA-1; experiment: as above; conditions: Gynecologic cancer cell panel viability, ATPlite luminescence, 48 h; series mostly up to 57.5 µM
# Method in brief: as §2
# [8] = Drug repurposing screens with cells derived from glioblastoma tumor samples (AID 1345199); conditions: GBM patient neurospheres viability, ATP luminescence, 48 h; Potency: tumour line A unless noted; activity, negative = cell killing: at 46 µM (top of the series), tumour line A unless noted; further: nearly all actives have a fitted effect of over 40% in size
# Method in brief: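 Primary testing used CD133+ neurospheres from four GBM patients, seven concentrations, 48 h exposure and ATP-based viability; confirmation added three slower-growing patient lines.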
# [9] = tested on: CP260; experiment: qHTS profiling for inhibitors of Plasmodium falciparum proliferation (AID 504749); further: nearly all actives have a fitted effect of over 60% in size; conditions: P. falciparum in erythrocytes, SYBR Green DNA, 72 h; series mostly up to 28.7 µM
# Method in brief: as §1
# [10] = tested on: OV90; experiment: Primary qHTS to identify gynecologic anti-cancer compounds using libraries of approved drugs and bioactive compounds (AID 1345084); conditions: Gynecologic cancer cell panel viability, ATPlite luminescence, 48 h; series mostly up to 57.5 µM; further: nearly all actives have a fitted effect of over 55% in size; on activity change, negative = cytotoxicity: on the % scale 0 is the no-effect control and ±100 the full control effect
# Method in brief: as §2
# [11] = P-glycoprotein substrates identified in KB-8-5-11 adenocarcinoma cell line, qHTS therapeutic library screen (AID 1346987); further: nearly all actives have a fitted effect of over 65% in size
# Method in brief: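 In this qHTS, P-gp-rich KB-8-5-11 cells received library compounds across a concentration range. Viability was quantified by luminescence after 72 h at 37 degree C.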
# [12] = Primary qHTS for inhibitors of nuclear receptor binding SET domain protein 2 (NSD2) in an RCH-ACV wild type WT cells (2C) (AID 1645877); conditions: activity change, negative = cell killing: at 44.9 µM (top of the series) unless noted; further: nearly all actives have a fitted effect of over 70% in size
# [13] = Primary fluorescence-based thiol-reactive (MSTI) qHTS assay for identification of artifact compounds. (AID 1845221);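 further: thiol-reactive compounds lower the probe fluorescence signal; nearly all actives have a fitted effect of over 65% in size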
# Method in brief: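 First, 4 uM MSTI in 2% DMSO/PBS pH 7.4 was dispensed; next, compounds were added; then plates sat 1 h at room temperature without light. Finally, emission at 598 nm was recorded.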
# [14] = target: Cytochrome P450 2D6 (Homo sapiens) (UniProt P10635); experiment: Cytochrome P450 family 2 subfamily D member 6 (CYP2D6) small molecule antagonists: luciferase biochemical (cell-free) qHTS assay (AID 1645840; active means well fitted curve in the direction sought with a large enough effect in the repeat runs; inconclusive means weak or mixed curves; inactive means no such curve, though single readings can be large; an effect the other way counts as inactive or inconclusive; further: nearly all actives have a fitted effect of over 55% in size)
# Sequence of UniProt P10635 (P10635 whole entry, looked up): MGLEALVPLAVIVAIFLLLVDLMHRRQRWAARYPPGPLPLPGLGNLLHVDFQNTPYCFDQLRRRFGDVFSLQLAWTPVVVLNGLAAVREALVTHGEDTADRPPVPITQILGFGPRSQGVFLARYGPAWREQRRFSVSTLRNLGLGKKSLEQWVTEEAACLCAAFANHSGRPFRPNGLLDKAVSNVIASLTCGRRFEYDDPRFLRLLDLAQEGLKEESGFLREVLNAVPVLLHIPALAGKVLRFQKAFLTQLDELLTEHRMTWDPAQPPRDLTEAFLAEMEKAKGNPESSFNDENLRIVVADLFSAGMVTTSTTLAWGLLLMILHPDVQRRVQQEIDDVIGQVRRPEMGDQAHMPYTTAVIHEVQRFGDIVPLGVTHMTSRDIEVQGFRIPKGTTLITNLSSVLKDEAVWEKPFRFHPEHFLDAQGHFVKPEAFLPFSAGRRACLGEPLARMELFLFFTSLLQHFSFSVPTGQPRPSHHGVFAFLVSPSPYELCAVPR
# Method in brief: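 P450-Glo CYP2D6 system: proluciferin substrate converted by enzyme to luciferin, read by luminescence proportional to activity. Enzyme-substrate mix with compound 10 min at room temperature, then NADPH regeneration 1 h before detection reagent.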
# [15] = tested on: Zika virus NS2B-NS3 protease (linked construct); experiment: Primary screen NINDS Rhodamine qHTS for Zika virus inhibitors (AID 1347160); conditions: activity change, negative = inhibition: at 57.1 µM (top of the series) unless noted; further: nearly all actives have a fitted effect of over 55% in size
# Method in brief: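 Aprotinin served as in-plate control. Conditions: 25 nM linked NS2B-NS3, pH 8.0 Tris buffer, titrated compounds, 15 min preincubation and 15 min reaction with 1.5 microM Rhod110 substrate at room temperature.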
# [16] = tested on: Tov-21-G; experiment: Primary qHTS to identify gynecologic anti-cancer compounds using libraries of approved drugs and bioactive compounds (AID 1345084); conditions: Gynecologic cancer cell panel viability, ATPlite luminescence, 48 h; activity change, negative = cytotoxicity: at 57.5 µM (top of the series) unless noted; further: nearly all actives have a fitted effect of over 55% in size; on activity change, negative = cytotoxicity: on the % scale 0 is the no-effect control and ±100 the full control effect
# Method in brief: as §2
# [17] = tested on: Zika virus NS2B-NS3 protease (unlinked complex); experiment: Primary screen GU Rhodamine qHTS for Zika virus inhibitors: Unlinked NS2B-NS3 protease assay (AID 1347159); further: nearly all actives have a fitted effect of over 60% in size
# Method in brief: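 Buffer 10 mM Tris-HCl pH 8.0, 0.01% Tween 20. Unlinked protease 25 nM; compound preincubation 15 min, RT, protected from light. Substrate Rhod110, 1.5 microM; ~15% conversion in 15 min.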
# [18] = tested on: SKOV3; experiment: Primary qHTS to identify gynecologic anti-cancer compounds using libraries of approved drugs and bioactive compounds (AID 1345084); conditions: Gynecologic cancer cell panel viability, ATPlite luminescence, 48 h; series mostly up to 57.5 µM; further: nearly all actives have a fitted effect of over 55% in size; on activity change, negative = cytotoxicity: on the % scale 0 is the no-effect control and ±100 the full control effect
# Method in brief: as §2
# Potency means the concentration at half of the fitted maximal effect; tags describe the fitted curve by direction and shape.
compound,measurement,setting,value
COc1cc([C@H]2Oc3cc([C@H]4Oc5cc(O)cc(O)c5C(=O)[C@@H]4O)ccc3O[C@@H]2CO)ccc1O,Potency,[1],"inconclusive: 26.3 µM [inhibitor, single point]"
same,Potency,[2],"inconclusive: 14.3 µM [inhibitor, partial curve, poor fit]"
same,Potency,[3],"inconclusive: 10 µM [inhibitor, single point]"
same,Potency,[4],"inconclusive: 15.1 µM [inhibitor, single point]"
same,Potency,[5],"inconclusive: 33.5 µM [inhibitor, single point]"
same,Potency,[6],inactive
same,Potency,[7],"inconclusive: 3.16 µM [rising, partial curve, poor fit]"
same,Potency,[8],"inconclusive: 35.5 µM [inhibitor, partial curve]"
CCNC(=O)/C=C/c1cccc(Br)c1,Potency,[1],"inconclusive: 33.5 µM [inhibitor, single point]"
same,Potency,[3],"inconclusive: 12.6 µM [inhibitor, single point]"
same,Potency,[9],"inconclusive: 12.6 µM [inhibitor, single point]"
same,Potency,[4],"inconclusive: 15.1 µM [inhibitor, single point]"
same,max response,[5],inactive: -21%
same,Potency,[10],inactive
same,Potency,[8],"inconclusive: 35.5 µM [inhibitor, single point]"
C[C@@H]1C(=O)O[C@H](C)[C@H]1C[C@@H](O)[C@](C)(O)[C@H]1CC[C@@]2(O)C3=CC(=O)[C@@H]4C[C@@H](O)[C@@H](O)C[C@]4(C)C3CC[C@]12C (stereo partly drawn),Potency,[11],inactive
same,Potency,[12],inactive
same,Potency,[13],inactive
same,max response,[5],inactive: 1.28%
same,Potency,[7],"inconclusive: 11.2 µM [rising, partial curve, poor fit]"
CCCCCCCCCCCCCCCCC(C(=O)O)C(O)(CC(=O)O)C(=O)O (stereo not drawn),Potency,[14],"inconclusive: 38.9 µM [inhibitor, single point]"
same,Potency,[1],"inconclusive: 33.5 µM [inhibitor, single point]"
same,Potency,[12],"inconclusive: 21.1 µM [inhibitor, single point]"
same,Potency,[2],active: 4.47 µM
same,max response,[5],inactive: 0.574%
same,Potency,[6],"inconclusive: 39.8 µM [rising, single point]"
C=C1C(=O)OC2CC(C)=C(C(C)CCCO)C(O)C12 (stereo not drawn),Potency,[15],"inconclusive: 8.91 µM [inhibitor, partial curve]"
same,Potency,[12],"inconclusive: 20.5 µM [inhibitor, partial curve, poor fit]"
same,Potency,[13],active: 5.97 µM
same,Potency,[5],"inconclusive: 29.1 µM [inhibitor, single point]"
same,Potency,[6],inactive
same,Potency,[16],inactive
COc1cccc(-c2ccc([C@@H](Oc3cc(-c4ccc(C[C@H](N)C(=O)O)cc4)nc(N)n3)C(F)(F)F)cc2)c1,Potency,[11],inactive
same,Potency,[15],"inconclusive: 12.6 µM [inhibitor, partial curve, poor fit]"
same,Potency,[1],inactive
same,Potency,[2],"inconclusive: 14.3 µM [inhibitor, partial curve, poor fit]"
same,outcome,[5],inactive
same,Potency,[6],inactive
C[C@@H]1[C@H](O)[C@@H]2OC(=O)C3=C2[C@H](CCC3)[C@@]12C[C@@H](c1ccoc1)OC2=O,Potency,[12],inactive
same,outcome,[5],inactive
same,Potency,[6],inactive
NC(=O)CC[C@@H](N)C(=O)O,Potency,[14],"inconclusive: 8.71 µM [inhibitor, partial curve]"
same,max response,[5],inactive: 0.058%
same,Potency,[7],inactive
COc1cc(CCCO)ccc1O[C@@H]1O[C@H](CO)[C@@H](O)[C@H](O)[C@H]1O,Potency,[15],"inconclusive: 11.2 µM [inhibitor, partial curve]"
same,Potency,[1],inactive
same,max response,[5],inactive: -1.2%
same,Potency,[6],inactive
CC1(C)[C@@H](O)CC[C@]2(C)[C@H]3C(=O)C=C4[C@@H]5C[C@@](C)(C(=O)O)CC[C@]5(C)CC[C@@]4(C)[C@]3(C)CC[C@@H]12,Potency,[17],active: 17.8 µM
same,Potency,[15],active: 14.1 µM
same,Potency,[2],active: 8.91 µM
same,max response,[5],inactive: -0.299%
same,Potency,[18],active: 3.16 µM
same,Potency,[16],inactive
same,Potency,[8],"inconclusive: 22.4 µM [inhibitor, partial curve] and inconclusive: 39.8 µM [inhibitor, partial curve, poor fit]"
Cc1c(C(=O)Nc2ccc(N3CC(C)OC(C)C3)nc2)cccc1-c1ccc(OC(F)(F)F)cc1 (stereo not drawn),Potency,[11],"inconclusive: 10.3 µM [inhibitor, partial curve]"
same,Potency,[17],"inconclusive: 89.1 µM [inhibitor, partial curve, poor fit]"
same,Potency,[15],"inconclusive: 22.4 µM [inhibitor, partial curve, poor fit]"
same,Potency,[1],"inconclusive: 9.16 µM [inhibitor, partial curve]"
same,Potency,[12],"inconclusive: 9.16 µM [inhibitor, partial curve]"
same,Potency,[5],"inconclusive: 20.6 µM [inhibitor, partial curve]"
same,Potency,[7],inactive
same,Potency,[18],"inconclusive: 28.2 µM [cytotoxic, single point]"
